# Reference: PubChem BioAssay AID1347073 (National Center for Advancing Translational Sciences (NCATS), 2019)
# The whole screen tested about 45,000 compounds, of which about 200 (0.44%) were called active. Roughly 7% stayed inconclusive and do not appear here. Calls come from the whole dose curve; as a rule, active = well fitted activation curve with a large enough effect; inconclusive = small, poorly fitted or top-dose-only effect; inactive = no such curve, though single readings can be large or run the other way. The list shows a part of the results.
# Assay: qHTS of TDP-43 Inhibitors: NCGC Sytravon Library Screen; note: 0% is about no effect; nearly all actives have a fitted effect of over 55% in size
# Settings: yeast TDP-43 toxicity rescue, BacTiter-Glo growth, 24 h; series mostly up to 46.1 µM; growth rescue (activation): at the top concentration
# Method in brief: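 TDP-43-expressing yeast, pregrown in raffinose, seeded at OD600 0.02 in galactose medium with compound for 24 hr at 30 deg C. Growth read by BacTiter-Glo luminescence, so rescue of toxicity appears as activation.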
row,SMILES,growth rescue (activation)
1,O=C(Nc1ccc(NC(=O)c2cccs2)cc1)c1cccs1,inactive: 0.303%
2,O=C(c1cc(-c2ccncc2)nc2ccccc12)N1CCOCC1,inactive: -2.91%
3,CC(C)C(c1nnnn1C1CCCCC1)N1CCN(C(=O)c2ccco2)CC1 (centres undefined),inactive: 12.7%
4,Cc1ccc(S(=O)(=O)Nc2ccccc2CNC2CCCCC2)cc1,inactive: -5.67%
5,COc1ccc(N(CC(=O)Nc2cccc(N(C)S(C)(=O)=O)c2)S(=O)(=O)c2ccccc2)cc1Cl,inactive: 1.69%
6,CCc1c(C(=O)Nc2ccc(C)c(C)c2)[nH]c(C)c1C(C)=O,inactive: 0.568%
7,COc1ccccc1N1CCN(C(=O)c2ccc(NS(=O)(=O)c3ccc(C)cc3)cc2)CC1,inactive: 8.1%
8,COC(C(=O)NNS(=O)(=O)c1ccc([N+](=O)[O-])cc1)c1ccccc1 (centres undefined),inactive: -11.6%
9,COc1ccc(NC(=O)c2sc3nc(Cc4ccccc4)cc(C(F)(F)F)c3c2N)cc1OC,inactive: 1.18%
10,CC(=O)Nc1ccc2nc(CN3CCC(CO)(CCc4ccccc4)CC3)ccc2c1,inactive: 24.8%
11,COc1ccc(NC(=O)CC2Nc3cccc4cccc(c34)NC2=O)cc1 (centres undefined),inactive: -11.4%
12,CCN1CCN(c2cc(C)c3cc(NC(=O)CCC(=O)N4CCN(c5ccccc5)CC4)ccc3n2)CC1,inactive: -0.395%
13,COCCNc1ncnc2c1ncn2[C@H]1CN(Cc2ccc3c(c2)OCO3)C[C@@H](CO)O1,inactive: 8.64%
14,COc1ccccc1C(=O)Nc1cccc(C(=O)N2CCOCC2)c1,inactive: 4.22%
15,CC(NC(=O)/C(C#N)=C1\N=C(NC(=O)c2ccco2)c2ccccc21)c1ccccc1 (centres undefined),inactive: 5.6%
16,CCOC(=O)c1ccc(NC(=O)CSc2nc(C)c(Cc3ccccc3)c(=O)[nH]2)cc1,inactive: 19.9%
17,O=C(Nc1ccc(Cl)c(C(F)(F)F)c1)C1Cc2c(-c3ccc4c(c3)OCO4)ccnc2O1 (centres undefined),inactive: 21.6%
18,O=C(CCC(=O)c1ccc(Br)cc1)Nc1ccc(F)cc1,inactive: 12.4%
19,CCOCCCNC(=S)N1CCN(Cc2ccco2)CC1,inactive: -2.72%
20,CCCNC(=S)N1CCC(C(=O)c2ccc3c(c2)OCCO3)CC1,inactive: 20.5%
21,COc1cccc(-c2cc(C(=O)Nc3ccc([N+](=O)[O-])cn3)c3ccccc3n2)c1,inactive: 23.4%
22,Cc1ccc(N(Cc2ccc(C(=O)NCC3CCCO3)cc2)S(C)(=O)=O)cc1C (centres undefined),inactive: 8.03%

row,SMILES,growth rescue (activation)
1,Cc1cc(-c2nn(-c3ccccc3F)cc2CN2CCCC(C(N)=O)C2)c(C)s1 (centres undefined),inactive: 1.94%
2,CCc1cccc(CC)c1N(COC)C(=O)Cn1c(C)nc2ccccc21,inactive: -9.13%
3,CN(Cc1cccnc1)C(=O)c1cc(COc2ccc3c(c2)CCCC3)on1,inactive: 27%
4,O=C(Nc1ccc(F)c(Cl)c1)C1Cc2ccccc2CN1S(=O)(=O)c1ccc(F)cc1 (centres undefined),inactive: 13.5%
5,O=C(COC(=O)[C@@H]1CCCN1C(=O)c1cccs1)Nc1ccc(Br)cc1,inactive: 13.6%
6,O=C(CCc1nc2ccccc2c(=O)[nH]1)OCC(=O)c1ccc(C2CCCCC2)cc1,inactive: 15%
7,O=C(Cc1ccccc1)NCCN1CCCC1,inactive: 14.1%
8,CCOc1ccc(C2=Nc3ccc(Br)cc3C(c3ccc(N4CCOCC4)cc3)=NN2)cc1,inactive: 16.6%
9,CCOC(CNC(=O)c1ccc2c(c1)ncn2-c1cccc(F)c1)OCC,inactive: 1.16%
10,Cn1c(=O)c(=O)n(C)c2cc(S(=O)(=O)NCc3ccc(Cl)cc3)ccc21,inactive: -14%
11,CCOC(=O)C1(CCCc2ccccc2)CCN(C(=O)CCc2cnccn2)CC1,inactive: -3%
12,CCCN(CCC)C1CC(=O)N(Cc2ccccc2)C1=O (centres undefined),inactive: -91.8%
13,Cc1ccc2[nH]c(O)c(N=NC(=O)C(C)n3cnc4ccccc4c3=O)c2c1 (centres undefined),inactive: -5.33%
14,O=C1c2ccccc2-c2onc3c(N4CCN(CCO)CC4)cc(N4CCN(C(=O)c5ccco5)CC4)c1c23,inactive: -26.1%
15,Cc1c(C(=O)OCC(=O)NCc2ccc3c(c2)OCO3)cccc1[N+](=O)[O-],inactive: -16.2%
16,CCc1nc2ccc(C(=O)N3CCCCC3)cn2c1N(CCC(C)C)CCN(C)C,inactive: -10.7%
17,CC(=O)CC(C)(C)Nc1nc2ccc([N+](=O)[O-])cc2o1,inactive: 8.82%
18,COc1ccccc1Nc1nc(C)nc2c1oc1ccccc12,inactive: 10.1%
19,Cc1cc(=O)oc2cc(OCC(=O)OCC(=O)N(CCC#N)c3ccccc3)ccc12,inactive: 4.41%
20,CC1(C)CC(=O)C2=C(C1)Nc1[nH]c(=S)[nH]c(=O)c1C2c1ccccc1 (centres undefined),inactive: 5.36%
21,Cc1ccccc1Nc1c(-c2ccccc2O)nc2sccn12,inactive: 13.8%
22,Cc1c(C#N)c(O)n(CCO)c(=O)c1N=Nc1ccccc1,inactive: 3.06%

row,SMILES,growth rescue (activation)
1,COc1ccc(CCN2C(=O)c3cccc4c(C(=O)N5CCCCC5)ccc(c34)C2=O)cc1OC,inactive: 10.3%
2,Cc1nnc(SCc2nnc(-c3cccs3)o2)n1C1CCCCC1,inactive: 0.404%
3,O=C(c1ccccc1)N1CCN(S(=O)(=O)N2CCCCCC2)CC1,inactive: -6.09%
4,Cc1ccc(/C=C/C(=O)Nc2ccc(S(=O)(=O)Nc3cc(C)nc(C)n3)cc2)cc1,inactive: 9.24%
5,O=C(CN(C(=O)c1csnn1)c1ccc(F)c(Cl)c1)NCc1ccc2c(c1)OCO2,inactive: -5.67%
6,O=C(Nc1ccc(S(=O)(=O)Nc2ncccn2)cc1)c1cccnc1,inactive: 13%
7,CCN(CC)CCCNc1cc2n(c(=O)n1)CCc1cc(OC)c(OC)cc1-2,inactive: -8.56%
8,O=Cc1ccccc1OS(=O)(=O)c1ccccc1,inactive: -33.6%
9,Cn1nc(C(=O)Nc2cccc(S(N)(=O)=O)c2)c2ccccc2c1=O,inactive: -9.16%
10,Cc1cc(Br)ccc1NC(=O)CN1C(=O)c2cccnc2Sc2ccccc21,inactive: 11%
11,Cc1ccc(C)c(N(C(=O)CNC(=O)c2ccco2)C(C(=O)NCC2CCCO2)c2ccccc2)c1 (centres undefined),inactive: -5.1%
12,COc1ccc(CN2CCN(C(=O)c3ccc4c(c3)CCC4)CC2)cc1OC,inactive: 8.71%
13,Cc1ccc(Cl)cc1NC(=O)COC(=O)CSc1ccccc1,inactive: 2.08%
14,CC(=O)N1CCCC(C)(C(=O)Nc2ccc3nc(C)ccc3c2)C1 (centres undefined),inactive: 5.61%
15,CC(=O)Nc1ccc(CNc2nc3cc(-c4cccc(C(F)(F)F)c4)sc3c(=O)n2C)cc1,inactive: 6.33%
16,OCC1(Cc2cccc(Cl)c2)CCCN(Cc2ccc3cc(F)ccc3n2)C1 (centres undefined),inactive: 13.1%
17,O=C(O)c1cccc(C(=O)c2cccc(C(=O)O)c2)c1,inactive: 4.76%
18,COCCSc1nnc(NC(=O)c2ccc(NC(C)=O)cc2)s1,inactive: 13.8%
19,COc1cc(/C=C/C(=O)OCC(=O)Nc2cc(C(F)(F)F)ccc2N2CCOCC2)ccc1O,inactive: 16%
20,C[C@]12CC[C@H](OC(=O)CCC(=O)O)CC1=CCC1C2CC[C@@]2(C)C1CC[C@@H]2N (some centres undefined),inactive: -23.5%
